Data reported in the supplement of paper PMC10670038.
Structures can show the parent of a compound that is named as a salt. ± gives the standard deviation of the averaged measurements. Whole data set: some 2,000 compounds, median “relative cell viability vs DMSO, compound alone” near 1.1, cut for the lowest 2% near 0.29. Some of the results follow.

Test system: TE10
Assay: relative cell viability vs DMSO, compound alone (fraction); TE10 is an esophageal squamous carcinoma line; higher = less cytotoxic
Conditions: 2 µM; 48 h
Procedure: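 TE10 ESCC cells (1,000/well, 384-well plates) were treated with Selleck bioactive library compounds at 2 uM alone for 48 h. Viability was read by CellTiter-Glo and expressed relative to DMSO wells. Two technical replicates (A, B).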

**Q.** `CCC(CC)n1ccc2c(C(=O)NCc3c(C)cc(C)[nH]c3=O)cc(C#N)cc21` was tested. Which relative cell viability did it give?
**A.** 1.145 ± 0.0067

**Q.** `CCNC(=O)c1[nH]nc(-c2cc(Cl)c(O)cc2O)c1-c1ccc(OC)cc1` was tested. Which relative cell viability did it give?
**A.** 0.64 ± 0.035

**Q.** `CC(C)c1ccc(NC(=O)Cn2cnc3c2c(=O)n(C)c(=O)n3C)cc1` was tested. Which relative cell viability did it give?
**A.** 1.163 ± 0.0012

**Q.** How did the relative cell viability turn out when `C[C@H](NC(=O)/C(C#N)=C/c1cccc(Br)n1)c1ccccc1` was run?
**A.** 1.14 ± 0.032

**Q.** `CC(NC(=O)Cc1cc(F)cc(F)c1)C(=O)NC(C(=O)OC(C)(C)C)c1ccccc1` (configuration not stated) was tested. Which relative cell viability did it give?
**A.** 1.004 ± 0.0065

**Q.** How did the relative cell viability turn out when `C[C@]12CC[C@@H]3c4ccc(O)cc4CC[C@H]3[C@@H]1CC[C@@H]2O` [Estradiol] was run?
**A.** 1.08 ± 0.016

**Q.** `CCCN(CCC)S(=O)(=O)c1ccc(C(=O)O)cc1` [Probenecid] was tested. Which relative cell viability did it give?
**A.** 1.14 ± 0.016

**Q.** How did the relative cell viability turn out when `CCNC(=O)Nc1ccc(-c2nc3c(c(N4CCOC[C@@H]4C)n2)CCN(C2COC2)C3)cc1` was run?
**A.** 0.7075 ± 0.0039

**Q.** With `Clc1ccc(CSC(Cn2ccnc2)c2ccc(Cl)cc2Cl)cc1` (configuration not stated) [Sulconazole Nitrate] as the compound, how does the relative cell viability read?
**A.** 0.9596 ± 0.0071

**Q.** How did the relative cell viability turn out when `O=C(c1ccc(Nc2nccc(-c3cc4ccccc4s3)n2)cc1)N1CCC(N2CCCC2)CC1` [IKK-16 (IKK Inhibitor VII)] was run?
**A.** 1.03 ± 0.02

**Q.** `Nc1ncnc2c1ncn2[C@@H]1O[C@H](CO)[C@@H](O)[C@H]1O` [Adenosine] was tested. Which relative cell viability did it give?
**A.** 1.165 ± 0.0028

**Q.** Which relative cell viability does the source give for `Cc1cc(C)c(Nc2ccnc(Nc3ccc(C#N)cc3)n2)c(C)c1` [Dapivirine (TMC120)] here?
**A.** 1.14 ± 0.043

**Q.** With `Cc1cc(/C=C2/SC(=S)NC2=O)c(C)n1-c1cccnc1` [Optovin] as the compound, how does the relative cell viability read?
**A.** 1.06 ± 0.031

**Q.** How did the relative cell viability turn out when `CN(C)CCN(Cc1ccccc1)c1ccccn1` [Tripelennamine HCl] was run?
**A.** 1.08 ± 0.017

**Q.** How did the relative cell viability turn out when `CC1CNc2c(cccc2S(=O)(=O)N[C@@H](CCCNC(=N)N)C(=O)N2CC[C@@H](C)C[C@@H]2C(=O)O)C1` (some centres not stated) [Argatroban] was run?
**A.** 0.878 ± 0.015

**Q.** `CO[C@H]1C[C@@H]2CC[C@@H](C)[C@@](O)(O2)C(=O)C(=O)N2CCCC[C@H]2C(=O)O[C@H]([C@H](C)C[C@@H]2CC[C@@H](OCCO)[C@H](OC)C2)CC(=O)[C@H](C)/C=C(\C)[C@@H](O)[C@@H](OC)C(=O)[C@H](C)C[C@H](C)/C=C/C=C/C=C/1C` [Everolimus (RAD001)] was tested. Which relative cell viability did it give?
**A.** 0.787 ± 0.044

**Q.** For `Fc1ccc(Cl)cc1-c1nc(Nc2ccncc2)c2nccnc2n1`, which relative cell viability is on record?
**A.** 1.11 ± 0.049

**Q.** With `Nc1ccn([C@@H]2O[C@H](CO)[C@@H](O)C2(F)F)c(=O)n1` [Gemcitabine] as the compound, how does the relative cell viability read?
**A.** 0.964 ± 0.038

**Q.** How did the relative cell viability turn out when `COc1ccccc1N1CCN(CCN(C(=O)C2CCCCC2)c2ccccn2)CC1` was run?
**A.** 1.08 ± 0.025

**Q.** `CC(=O)O[C@@]12CO[C@@H]1C[C@H](O)[C@@]1(C)C(=O)[C@H](O)C3=C(C)[C@@H](OC(=O)[C@H](O)[C@@H](NC(=O)OC(C)(C)C)c4ccccc4)C[C@@](O)([C@@H](OC(=O)c4ccccc4)[C@H]21)C3(C)C` [Docetaxel] was tested. Which relative cell viability did it give?
**A.** 0.664 ± 0.065

**Q.** For `CC(=O)O[C@@]12CO[C@@H]1C[C@H](O)[C@@]1(C)C(=O)[C@H](O)C3=C(C)[C@@H](OC(=O)[C@H](O)[C@@H](NC(=O)OC(C)(C)C)c4ccccc4)C[C@@](O)([C@@H](OC(=O)c4ccccc4)[C@H]21)C3(C)C` [Docetaxel Trihydrate], which relative cell viability is on record?
**A.** 0.783 ± 0.072

**Q.** For `Nc1cccc2c1C(=O)N(C1CCC(=O)NC1=O)C2=O` (configuration not stated) [Pomalidomide], which relative cell viability is on record?
**A.** 0.98 ± 0.053

**Q.** How did the relative cell viability turn out when `Oc1ccc(OC2CCCCO2)cc1` (configuration not stated) [Deoxyarbutin] was run?
**A.** 0.918 ± 0.11

**Q.** With `COc1cc(C(=O)O)ccc1NC(=O)[C@@H]1N[C@@H](CC(C)(C)C)[C@](C#N)(c2ccc(Cl)cc2F)[C@H]1c1cccc(Cl)c1F` [Idasanutlin (RG-7388)] as the compound, how does the relative cell viability read?
**A.** 0.928 ± 0.079

**Q.** `O=C(O)C(O)Cc1ccc(O)c(O)c1` (configuration not stated) [Sodium Danshensu] was tested. Which relative cell viability did it give?
**A.** 0.696 ± 0.044

**Q.** With `N[C@@H](Cc1cc(I)c(Oc2cc(I)c(O)c(I)c2)c(I)c1)C(=O)O` [L-Thyroxine] as the compound, how does the relative cell viability read?
**A.** 1.12 ± 0.021

**Q.** For `CC1(C)CCC(C)(C)c2cc(NC(=O)c3ccc(C(=O)O)cc3)ccc21` [Tamibarotene], which relative cell viability is on record?
**A.** 1.13 ± 0.035

**Q.** Which relative cell viability does the source give for `O=C([C@@H](Cc1cccc(C(F)(F)F)c1)NS(=O)(=O)c1cc(F)c2c(c1)CCNC2)N1CCCC1` here?
**A.** 1.1 ± 0.028

**Q.** With `Nc1nc(Cl)nc2c1ncn2[C@H]1C[C@H](O)[C@@H](CO)O1` [Cladribine] as the compound, how does the relative cell viability read?
**A.** 1.4 ± 0.087

**Q.** For `O=C(C=Cc1ccccc1)NC(NC(=S)Nc1ccc(Cl)cc1)C(Cl)(Cl)Cl` (configuration not stated), which relative cell viability is on record?
**A.** 1.07 ± 0.03

**Q.** With `OCCOCCN1CCN(C2=Nc3ccccc3Sc3ccccc32)CC1` [Quetiapine Fumarate] as the compound, how does the relative cell viability read?
**A.** 1.079 ± 0.0073

**Q.** How did the relative cell viability turn out when `Cc1nc(Nc2cnn(C3CCNCC3)c2)nc2c1N(C)C(=O)c1cc3ccccc3cc1N2C` was run?
**A.** 1.21 ± 0.045

**Q.** With `CC1(C)S[C@@H]2[C@H](NC(=O)[C@H](N)c3ccc(O)cc3)C(=O)N2[C@H]1C(=O)O` [Amoxicillin Sodium] as the compound, how does the relative cell viability read?
**A.** 1.09 ± 0.024

**Q.** For `CC1(C)S[C@@H]2[C@H](NC(=O)[C@H](N)c3ccc(O)cc3)C(=O)N2[C@H]1C(=O)O` [Amoxicillin], which relative cell viability is on record?
**A.** 0.9126 ± 0.0014

**Q.** How did the relative cell viability turn out when `Cc1cc(C(=O)NOCCO)c(Nc2ccc(I)cc2F)n(C)c1=O` was run?
**A.** 0.579 ± 0.024

**Q.** With `COc1cccc2c1C(=O)c1c(O)c3c(c(O)c1C2=O)C[C@@](O)(C(=O)CO)C[C@@H]3O[C@H]1C[C@H](N)[C@H](O)[C@H](C)O1` [Doxorubicin (Adriamycin)] as the compound, how does the relative cell viability read?
**A.** 0.3423 ± 0.00049

**Q.** `Cc1nc2ccc(-n3ncc(C(=O)c4cc5ccccc5[nH]4)c3N)cc2[nH]1` was tested. Which relative cell viability did it give?
**A.** 0.93 ± 0.044

**Q.** For `CCCCC(=O)O[C@H]1CC[C@H]2[C@@H]3CCc4cc(O)ccc4[C@H]3CC[C@]12C` [Estradiol valerate], which relative cell viability is on record?
**A.** 1.07 ± 0.1

**Q.** How did the relative cell viability turn out when `N#Cc1c(O)c2c(-c3ccc(-c4ccccc4O)cc3)csc2[nH]c1=O` was run?
**A.** 1.09 ± 0.053

**Q.** For `Cc1[nH]c2ccccc2c1CCNC(=O)c1cccs1`, which relative cell viability is on record?
**A.** 1.08 ± 0.069

**Q.** For `N=C(N)c1ccc(OCCCCCOc2ccc(C(=N)N)cc2)cc1` [Pentamidine], which relative cell viability is on record?
**A.** 1.17 ± 0.025

**Q.** For `Oc1ccc([C@H]2COc3cc(O)ccc3C2)cc1` [Equol], which relative cell viability is on record?
**A.** 1.08 ± 0.038

**Q.** With `Fc1ccc(C(c2ccc(F)cc2)N2CCN(C/C=C/c3ccccc3)CC2)cc1` [Flunarizine 2HCl] as the compound, how does the relative cell viability read?
**A.** 1.09 ± 0.044

**Q.** Which relative cell viability does the source give for `O=c1cc(-c2cccc3c2Sc2ccccc2S3)oc(N2CCOCC2)c1` here?
**A.** 1.22 ± 0.014

**Q.** `Cc1ccc(Nc2c(F)cccc2Cl)c(CC(=O)O)c1` [Lumiracoxib] was tested. Which relative cell viability did it give?
**A.** 1.231 ± 0.0092

**Q.** How did the relative cell viability turn out when `CCCc1cc(=O)[nH]c(=S)[nH]1` [Propylthiouracil] was run?
**A.** 1.08 ± 0.065

**Q.** For `Cc1onc(-c2ccccc2)c1-c1ccc(S(N)(=O)=O)cc1` [Valdecoxib], which relative cell viability is on record?
**A.** 1.17 ± 0.047
